Laboratory results from PubChem BioAssay (NCATS).
The shares of active, inactive and inconclusive entries below differ from those in the screen. For some assays here: Where the call is inconclusive, the potency comes from a doubtful curve fit. Activity calls are given as the source filed them. The call rests on the fitted dose curve; in most records, active means well fitted curve in the direction sought with a large enough effect; inconclusive means small, poorly fitted or top-dose-only effect, or another doubt; inactive means no such curve, though single readings can be large; an effect the other way counts as inactive or inconclusive.

What was measured:
C33A = assay: Primary qHTS to identify gynecologic anti-cancer compounds using libraries of approved drugs and bioactive compounds (AID 1345084); details: Gynecologic cancer cell panel viability, ATPlite luminescence, 48 h; series mostly up to 57.5 µM; further: nearly all actives have a fitted effect of over 55% in size; further: potency means the concentration at half of the fitted maximal effect
Outline: (§1)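 Cells, 1,000 per well, plated 16 h, then exposed 48 h at 37 C to compounds. Viability by ATPlite luminescence after 15 min at room temperature.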

CAOV3 = assay: as above; details: Gynecologic cancer cell panel viability, ATPlite luminescence, 48 h; series mostly up to 57.5 µM
Outline: as §1

CASKI = assay: as above; details: Gynecologic cancer cell panel viability, ATPlite luminescence, 48 h; series mostly up to 57.5 µM
Outline: as §1

Es-2 = assay: as above; details: Gynecologic cancer cell panel viability, ATPlite luminescence, 48 h; series mostly up to 57.5 µM
Outline: as §1

HeLa = assay: as above; details: Gynecologic cancer cell panel viability, ATPlite luminescence, 48 h; series mostly up to 57.5 µM
Outline: as §1

Hek293T = assay: as above; details: Gynecologic cancer cell panel viability, ATPlite luminescence, 48 h, control line for the selectivity index; series mostly up to 57.5 µM
Outline: as §1

JEG-3 = assay: as above; details: Gynecologic cancer cell panel viability, ATPlite luminescence, 48 h; series mostly up to 57.5 µM
Outline: as §1

OV90 = assay: as above; details: Gynecologic cancer cell panel viability, ATPlite luminescence, 48 h; series mostly up to 57.5 µM
Outline: as §1

TAB109 = assay: qHTS profiling for inhibitors of Plasmodium falciparum proliferation (AID 504749); further: nearly all actives have a fitted effect of over 60% in size; details: P. falciparum in erythrocytes, SYBR Green DNA, 72 h; series mostly up to 28.7 µM
Outline: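 Quantitative HTS: compounds pinned into medium, infected erythrocytes added (0.3% parasitemia, 2.5% hematocrit), 72 h culture at 37 C under 5% CO2. Saponin/Triton lysis with SYBR Green I, overnight RT, then fluorescence read.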
Tags describe the fitted curve by direction and shape.

SMILES: COC1CC(O[C@H]2CC[C@]3(C)C4CC[C@]5(C)[C@@H](C6=CC(=O)OC6)[C@@H](OC(C)=O)C[C@]5(O)C4CC[C@@H]3C2)OC(C)C1O (stereo partly drawn)
- Potency (C33A): active: 0.891 µM
- Potency (CAOV3): active: 1.26 µM
- Potency (CASKI): inconclusive: 2.82 µM [cytotoxic, partial curve, poor fit]
- Potency (Es-2): active: 0.891 µM
- Potency (HeLa): active: 0.891 µM
- Potency (Hek293T): active: 1 µM
- Potency (JEG-3): inconclusive: 3.98 µM [cytotoxic, single point]
- Potency (OV90): active: 3.16 µM

SMILES: CC(=O)OC[C@]12C[C@H](OC(=O)CC(C)C)C(C)=C[C@H]1O[C@@H]1[C@H](O)[C@@H](O)[C@@]2(C)[C@]12CO2
- Potency (C33A): inconclusive: 0.158 µM [cytotoxic, full curve, poor fit]
- Potency (CAOV3): inconclusive: 0.126 µM [cytotoxic, full curve, poor fit]
- Potency (CASKI): active: 0.224 µM
- Potency (Es-2): active: 0.178 µM
- Potency (HeLa): active: 0.158 µM
- Potency (Hek293T): active: 0.0794 µM
- Potency (JEG-3): active: 1.58 µM
- Potency (OV90): inconclusive: 1.26 µM [cytotoxic, partial curve, poor fit]

SMILES: CO[C@H]1C[C@H](O[C@H]2CC[C@]3(CO)[C@H]4CC[C@]5(C)[C@@H](C6=CC(=O)OC6)CC[C@]5(O)[C@@H]4CC[C@]3(O)C2)O[C@H](C)[C@H]1O
- Potency (C33A): active: 0.0891 µM
- Potency (CAOV3): active: 0.355 µM
- Potency (CASKI): active: 0.891 µM
- Potency (Es-2): active: 0.199 µM
- Potency (HeLa): active: 0.199 µM
- Potency (Hek293T): active: 0.224 µM
- Potency (JEG-3): inconclusive: 0.355 µM [cytotoxic, full curve, poor fit]
- Potency (OV90): active: 1 µM

SMILES: CC[C@@H](C)[C@H]1C(=O)O[C@H](C(C)C)C(=O)N(C)[C@@H]([C@@H](C)CC)C(=O)O[C@H](C(C)C)C(=O)N(C)[C@@H]([C@H](C)CC)C(=O)O[C@H](C(C)C)C(=O)N1C
- Potency (C33A): inconclusive: 12.6 µM [cytotoxic, single point]
- Potency (CAOV3): inconclusive: 4.47 µM [cytotoxic, partial curve, poor fit]
- Potency (CASKI): inconclusive: 12.6 µM [cytotoxic, single point]
- Potency (Es-2): inconclusive: 12.6 µM [cytotoxic, single point]
- Potency (HeLa): inconclusive: 8.91 µM [cytotoxic, single point]
- Potency (Hek293T): inconclusive: 12.6 µM [cytotoxic, single point]
- Potency (OV90): inconclusive: 10 µM [cytotoxic, single point]

SMILES: C/C=C(\C)C(O)C(C)/C=C(C)/C=C/C/C(C)=C/Cc1nc(OC)c(OC)c(O[C@@H]2O[C@@H](C)[C@H](O)[C@@H](O)[C@H]2O)c1C (stereo partly drawn)
- Potency (C33A): inconclusive: 1.58 µM [cytotoxic, full curve, poor fit]
- Potency (CAOV3): inconclusive: 2 µM [cytotoxic, full curve]
- Potency (CASKI): active: 3.98 µM
- Potency (Es-2): inconclusive: 2.24 µM [cytotoxic, full curve]
- Potency (Hek293T): inconclusive: 4.47 µM [cytotoxic, partial curve]
- Potency (JEG-3): inconclusive: 6.31 µM [cytotoxic, partial curve, poor fit]

SMILES: CC(=O)OC[C@]12C[C@H](OC(=O)CC(C)C)C(C)=C[C@H]1O[C@@H]1[C@H](O)C[C@@]2(C)[C@]12CO2
- Potency (C33A): active: 2.82 µM
- Potency (CAOV3): active: 4.47 µM
- Potency (CASKI): inconclusive: 6.31 µM [cytotoxic, partial curve, poor fit]
- Potency (Es-2): active: 3.98 µM
- Potency (Hek293T): active: 1 µM
- Potency (JEG-3): inconclusive: 20 µM [cytotoxic, single point]
- Potency (OV90): active: 4.47 µM

SMILES: C[C@@H]1CN(Cc2ccc(F)cc2)CCN1C(=O)COc1ccc(Cl)cc1NC(N)=O
- Potency (C33A): active: 2.51 µM
- Potency (CAOV3): inconclusive: 7.08 µM [cytotoxic, single point]
- Potency (CASKI): inconclusive: 7.08 µM [cytotoxic, partial curve]
- Potency (Es-2): inconclusive: 8.91 µM [cytotoxic, partial curve]
- Potency (Hek293T): inconclusive: 7.94 µM [cytotoxic, full curve]
- Potency (OV90): active: 8.91 µM

SMILES: CCCCN1[C@@H]2CC[C@H]1CC(OC(c1ccc(F)cc1)c1ccc(F)cc1)C2 (stereo partly drawn)
- Potency (C33A): active: 22.4 µM
- Potency (CAOV3): inconclusive: 25.1 µM [cytotoxic, single point]
- Potency (CASKI): inconclusive: 28.2 µM [cytotoxic, single point]
- Potency (Es-2): inconclusive: 39.8 µM [cytotoxic, single point]
- Potency (Hek293T): inconclusive: 35.5 µM [cytotoxic, single point]
- Potency (OV90): active: 12.6 µM

SMILES: Fc1cc(F)c2c(c1)[C@H]1C=CC[C@H]1C(c1cccnc1)N2 (stereo partly drawn)
- Potency (C33A): inconclusive: 31.6 µM [cytotoxic, single point]
- Potency (CAOV3): inconclusive: 39.8 µM [cytotoxic, single point]
- Potency (CASKI): inconclusive: 39.8 µM [cytotoxic, single point]
- Potency (Es-2): inconclusive: 39.8 µM [cytotoxic, single point]
- Potency (Hek293T): inconclusive: 39.8 µM [cytotoxic, single point]
- Potency (JEG-3): active: 25.1 µM
- Potency (OV90): inconclusive: 31.6 µM [cytotoxic, single point]

SMILES: C[C@]12CC[C@@H]3c4ccc(OC(=O)N(CCCl)CCCl)cc4CC[C@H]3[C@@H]1CC[C@@H]2O
- Potency (TAB109): inactive
- Potency (C33A): inconclusive: 39.8 µM [cytotoxic, single point]
- Potency (CAOV3): inconclusive: 39.8 µM [cytotoxic, single point]
- Potency (CASKI): inconclusive: 39.8 µM [cytotoxic, single point]
- Potency (Es-2): inconclusive: 39.8 µM [cytotoxic, single point]
- Potency (Hek293T): inconclusive: 31.6 µM [cytotoxic, single point]
- Potency (JEG-3): inconclusive: 39.8 µM [cytotoxic, single point]
- Potency (OV90): inconclusive: 39.8 µM [cytotoxic, single point]

SMILES: CC1=CC2/C=C(\C)CCC(O)C(O)C(O)CC(=O)C23C(=O)NC(CC(C)C)C3C1C (stereo not drawn)
- Potency (C33A): inconclusive: 10 µM [cytotoxic, partial curve, poor fit]
- Potency (CAOV3): inconclusive: 15.8 µM [cytotoxic, single point]
- Potency (CASKI): inconclusive: 12.6 µM [cytotoxic, partial curve]
- Potency (Es-2): inconclusive: 20 µM [cytotoxic, single point]
- Potency (Hek293T): inconclusive: 20 µM [cytotoxic, single point]
- Potency (OV90): inconclusive: 17.8 µM [cytotoxic, single point]

SMILES: COC1CC(OC2CCC3(C)C(CCC4C3CCC3(C)C(C5=CC(=O)OC5)C(OC(C)=O)CC43O)C2)OC(C)C1OC1OC(CO)C(O)C(O)C1O (stereo not drawn)
- Potency (C33A): active: 3.16 µM
- Potency (CAOV3): inconclusive: 3.55 µM [cytotoxic, partial curve, poor fit]
- Potency (CASKI): inconclusive: 8.91 µM [cytotoxic, single point]
- Potency (Es-2): inconclusive: 3.16 µM [cytotoxic, partial curve, poor fit]
- Potency (Hek293T): active: 3.16 µM
- Potency (JEG-3): inconclusive: 6.31 µM [cytotoxic, partial curve, poor fit]
- Potency (OV90): inconclusive: 8.91 µM [cytotoxic, single point]

SMILES: CC(=O)O[C@@H]1[C@@H](O)[C@H]2O[C@@H]3C=C(C)[C@@H](O)C[C@]3(CO)[C@]1(C)[C@]21CO1
- Potency (C33A): active: 3.55 µM
- Potency (CAOV3): inconclusive: 1 µM [cytotoxic, partial curve, poor fit]
- Potency (CASKI): active: 3.98 µM
- Potency (Es-2): active: 2 µM
- Potency (Hek293T): inconclusive: 0.794 µM [cytotoxic, full curve, poor fit]
- Potency (JEG-3): inconclusive: 11.2 µM [cytotoxic, partial curve, poor fit]

SMILES: CC1=CC(=O)[C@@H](O)[C@]2(C)C3[C@@H](O)[C@@H]4OC(=O)[C@@H]([C@H]4C)[C@]3(C)C(=O)C[C@@H]12 (stereo partly drawn)
- Potency (C33A): inconclusive: 7.08 µM [cytotoxic, partial curve, poor fit]
- Potency (CAOV3): inactive
- Potency (CASKI): inconclusive: 28.2 µM [cytotoxic, single point]
- Potency (Es-2): active: 8.91 µM
- Potency (Hek293T): inconclusive: 5.62 µM [cytotoxic, full curve, poor fit]

SMILES: C=C1[C@@H](C)[C@H]2[C@H](Cc3ccccc3)NC(=O)[C@]23OC(=O)/C=C/C(=O)CCC[C@@H](C)C/C=C/[C@H]3[C@@H]1O
- Potency (C33A): inconclusive: 39.8 µM [cytotoxic, single point]
- Potency (CAOV3): active: 12.6 µM
- Potency (CASKI): active: 15.8 µM
- Potency (Es-2): active: 14.1 µM
- Potency (HeLa): inconclusive: 31.6 µM [cytotoxic, single point]
- Potency (Hek293T): active: 15.8 µM
- Potency (OV90): inconclusive: 28.2 µM [cytotoxic, partial curve]

SMILES: CCCCCCC1C(=O)O[C@H](C)[C@H](NC(=O)c2cccc(NC=O)c2O)C(=O)O[C@@H](C)[C@@H]1OC(=O)CC(C)C (stereo partly drawn)
- Potency (C33A): inconclusive: 0.316 µM [cytotoxic, full curve]
- Potency (CAOV3): active: 3.16 µM
- Potency (CASKI): active: 1 µM
- Potency (HeLa): inconclusive: 0.1 µM [cytotoxic, full curve, poor fit]
- Potency (Hek293T): inconclusive: 0.224 µM [cytotoxic, full curve, poor fit]

SMILES: O=C1Nc2ccc3ncsc3c2/C1=C/c1cnc[nH]1
- Potency (C33A): inconclusive: 10 µM [cytotoxic, partial curve, poor fit]
- Potency (CAOV3): inconclusive: 11.2 µM [cytotoxic, partial curve, poor fit]
- Potency (CASKI): inconclusive: 15.8 µM [cytotoxic, partial curve, poor fit]
- Potency (Es-2): inconclusive: 8.91 µM [cytotoxic, partial curve, poor fit]
- Potency (Hek293T): inconclusive: 5.62 µM [cytotoxic, full curve]
- Potency (JEG-3): inconclusive: 22.4 µM [cytotoxic, single point]
